B1: GPR68, Q15743 (parent)
chain: MGNITADNSSMSCTIDHTIHQTLAPVVYVTVLVVGFPANCLSLYFGYLQIKARNELGVYLCNLTVADLFYICSLPFWLQYVLQHDNWSHGDLSCQVCGILLYENIYISVGFLCCISVDRYLAVAHPFRFHQFRTLKAAVGVSVVIWAKELLTSIYFLMHEEVIEDENQHRVCFEHYPIQAWQRAINYYRFLVGFLFPICLLLASYQGILRAVRRSHGTQKSRKDQIQRLVLSTVVIFLACFLPYHVLLLVRSVWEASCDFAKGVFNAYHFSLLLTSFNCVADPVLYCFVSETTHRDLARLRGACLAFLTCSRTGRAREAYPLGAPEASGKSGAQGEEPELLTKLHPAFQTPNSPGSGGFPTGRLA

Data set [1] covers variants of B1. The experiment in a line: cAMP reporter score (Enrich2 score, wild type = 0); higher = more signal; HEK293T, FACS bins.
In data set [2] the parent is B1. The experiment in a line: surface expression score (Enrich2 score, wild type = 0); higher = more signal; HEK293T, FACS bins.

Drawing on the GPR68 mutational scans of Howard et al. (2025), this text covers cAMP reporter score and surface expression score for 34 variants.

Scores whose standard error is large were omitted. The source holds two more conditions with little spread; they are left out. Read del as a deletion of the residues named and ins as an insertion between two positions. For some of these results: How much ogerin was present is not stated here.

For the variant L112_C113insG, the cAMP reporter score is -1.39 in data set [1] (pH 5.5); -0.949 in data set [1] (pH 6); -2 in data set [1] (pH 6, modulator: ogerin); -1.82 in data set [1] (pH 6.5, modulator: ogerin). The surface expression score in data set [2] was -1.91.

Turning to A124D, the cAMP reporter score in data set [1] (pH 5.5) is -1.43; in data set [1] (pH 6, modulator: ogerin) it was -0.678; in data set [1] (pH 6.5, modulator: ogerin) it was -0.444. In addition, the surface expression score in data set [2] is -0.403.

With A124C, the cAMP reporter score in data set [1] (pH 5.5) worked out at 1.04; in data set [1] (pH 6) it was 3.52; in data set [1] (pH 6, modulator: ogerin), 1.23; in data set [1] (pH 6.5, modulator: ogerin), 3.19. Also, in data set [2], the surface expression score worked out at 1.09.

Consider D118_R119insGSG, for which the cAMP reporter score in data set [1] (pH 5.5) was -1.7; in data set [1] (pH 6), -1.31; in data set [1] (pH 6.5, modulator: ogerin) it was -2.81. Moreover, the surface expression score in data set [2] is -2.04.

As for S108_G110del, the cAMP reporter score is -1.92 in data set [1] (pH 5.5); -0.741 in data set [1] (pH 6); -1.67 in data set [1] (pH 6, modulator: ogerin); -1.02 in data set [1] (pH 6.5, modulator: ogerin). Further, in data set [2], the surface expression score is -2.1.

On to Y120_A122del, for which the cAMP reporter score is -2.34 in data set [1] (pH 5.5); -1.1 in data set [1] (pH 6); -1.24 in data set [1] (pH 6.5, modulator: ogerin). For the same variant, the surface expression score in data set [2] is -2.47.

Take Y120E: the cAMP reporter score in data set [1] (pH 5.5) is -0.969; in data set [1] (pH 6) it was -2.02; in data set [1] (pH 6, modulator: ogerin), -0.184; in data set [1] (pH 6.5, modulator: ogerin), -0.424.

In the case of Y120V, the cAMP reporter score in data set [1] (pH 5.5) is -0.226; in data set [1] (pH 6, modulator: ogerin), 1.53; in data set [1] (pH 6.5, modulator: ogerin), -0.024.

As for Y120K, the cAMP reporter score in data set [1] (pH 5.5) is -0.401; in data set [1] (pH 6, modulator: ogerin), -0.664; in data set [1] (pH 6.5, modulator: ogerin), -0.432. In addition, the surface expression score in data set [2] was -0.425.

For Y120S, the cAMP reporter score was -0.285 in data set [1] (pH 5.5); 0.489 in data set [1] (pH 6); -3.46 in data set [1] (pH 6, modulator: ogerin). Also, in data set [2], the surface expression score was -1.25.

As for Y120C, the cAMP reporter score in data set [1] (pH 5.5) was -0.296; in data set [1] (pH 6), -0.786; in data set [1] (pH 6, modulator: ogerin) it was -2.67; in data set [1] (pH 6.5, modulator: ogerin), -1.14. Also, in data set [2], the surface expression score was -2.45.

Regarding Y120L, the cAMP reporter score is 0.115 in data set [1] (pH 5.5); 0.469 in data set [1] (pH 6, modulator: ogerin); -0.112 in data set [1] (pH 6.5, modulator: ogerin). Also, the surface expression score in data set [2] is -1.72.

Consider Y120W, for which the cAMP reporter score was 1.37 in data set [1] (pH 5.5); -0.698 in data set [1] (pH 6); -0.64 in data set [1] (pH 6, modulator: ogerin); -0.441 in data set [1] (pH 6.5, modulator: ogerin). Also, the surface expression score in data set [2] was 0.891.

For the variant Y120P, the cAMP reporter score in data set [1] (pH 5.5) was -1.85; in data set [1] (pH 6), -1.34; in data set [1] (pH 6, modulator: ogerin), -1.71; in data set [1] (pH 6.5, modulator: ogerin) it was -1.34. For the same variant, in data set [2], the surface expression score is -1.86.

As for Y120D, the cAMP reporter score was -1.63 in data set [1] (pH 5.5); -1.16 in data set [1] (pH 6); -1.57 in data set [1] (pH 6.5, modulator: ogerin). In addition, in data set [2], the surface expression score was -3.5.

Y120G: the cAMP reporter score in data set [1] (pH 5.5) was -0.817; in data set [1] (pH 6), -1.51; in data set [1] (pH 6.5, modulator: ogerin), -0.604. Besides, the surface expression score in data set [2] is -2.49.

Take Y120M: the cAMP reporter score was -0.189 in data set [1] (pH 5.5); -0.193 in data set [1] (pH 6); -1.47 in data set [1] (pH 6, modulator: ogerin); -0.844 in data set [1] (pH 6.5, modulator: ogerin). The surface expression score in data set [2] was -2.84.

For the variant Y120T, the cAMP reporter score in data set [1] (pH 5.5) is -1.5; in data set [1] (pH 6), -1.1; in data set [1] (pH 6, modulator: ogerin) it was -2.17; in data set [1] (pH 6.5, modulator: ogerin), -0.851. The surface expression score in data set [2] is -2.66.

As to Y120H, the cAMP reporter score in data set [1] (pH 5.5) is -0.808; in data set [1] (pH 6), -0.376; in data set [1] (pH 6, modulator: ogerin) it was -1.02; in data set [1] (pH 6.5, modulator: ogerin) it was -0.858. The surface expression score in data set [2] was -0.97.

For the variant Y120N, the cAMP reporter score in data set [1] (pH 5.5) is -0.409; in data set [1] (pH 6) it was -0.582.

In the case of Y120R, the cAMP reporter score in data set [1] (pH 5.5) was -2.5; in data set [1] (pH 6), -1.06; in data set [1] (pH 6, modulator: ogerin) it was -3.79.

In the case of Y120F, the cAMP reporter score in data set [1] (pH 5.5) was -1.04; in data set [1] (pH 6) it was -0.665; in data set [1] (pH 6, modulator: ogerin), -0.669; in data set [1] (pH 6.5, modulator: ogerin), -0.437. For the same variant, the surface expression score in data set [2] is -0.411.

As for Y120Q, the cAMP reporter score was -1.19 in data set [1] (pH 5.5); -0.812 in data set [1] (pH 6); -2.28 in data set [1] (pH 6.5, modulator: ogerin). Also, the surface expression score in data set [2] is -2.9.

On to S116_D118del, for which the cAMP reporter score in data set [1] (pH 5.5) is -1.96; in data set [1] (pH 6), -1.32; in data set [1] (pH 6, modulator: ogerin), -1.68; in data set [1] (pH 6.5, modulator: ogerin) it was -1.34. Besides, in data set [2], the surface expression score was -2.52.

On to V123_A124insGS, for which the cAMP reporter score in data set [1] (pH 5.5) was -0.413; in data set [1] (pH 6, modulator: ogerin) it was -2.37.

Regarding V117_D118insGSG, the values for the cAMP reporter score in data set [1] (pH 5.5) and in data set [1] (pH 6) were -0.482 and -0.244, respectively.

For the variant I115_S116insGSG, the cAMP reporter score is -1.66 in data set [1] (pH 5.5); -2.15 in data set [1] (pH 6); -0.924 in data set [1] (pH 6, modulator: ogerin); -1.11 in data set [1] (pH 6.5, modulator: ogerin). Further, in data set [2], the surface expression score was -2.24.

With Y120_L121del, the cAMP reporter score in data set [1] (pH 5.5) is -0.558; in data set [1] (pH 6, modulator: ogerin), -1.25; in data set [1] (pH 6.5, modulator: ogerin) it was -1.84. The surface expression score in data set [2] was -1.94.

With S108del, the cAMP reporter score is -1.7 in data set [1] (pH 5.5); -0.981 in data set [1] (pH 6); -1.33 in data set [1] (pH 6, modulator: ogerin); -1.01 in data set [1] (pH 6.5, modulator: ogerin). Besides, the surface expression score in data set [2] is -1.86.

G110_F111insGS: the cAMP reporter score in data set [1] (pH 5.5) was -0.182; in data set [1] (pH 6) it was -0.648; in data set [1] (pH 6, modulator: ogerin), -3.17.

Turning to Y120_L121insGSG, the cAMP reporter score was -1.9 in data set [1] (pH 5.5); -1.83 in data set [1] (pH 6); -1.38 in data set [1] (pH 6.5, modulator: ogerin). Also, the surface expression score in data set [2] was -1.19.

Consider Y120del, for which the cAMP reporter score in data set [1] (pH 5.5) is -0.841; in data set [1] (pH 6), -0.849; in data set [1] (pH 6, modulator: ogerin), -1.16; in data set [1] (pH 6.5, modulator: ogerin) it was -0.606. Moreover, the surface expression score in data set [2] was -2.44.

I107_V109del: the cAMP reporter score in data set [1] (pH 5.5) was -1.62; in data set [1] (pH 6) it was -0.919; in data set [1] (pH 6, modulator: ogerin), -0.698; in data set [1] (pH 6.5, modulator: ogerin), -0.896. Moreover, the surface expression score in data set [2] is -2.24.

Take V123_H125del: the cAMP reporter score in data set [1] (pH 5.5) was -1.88; in data set [1] (pH 6) it was -1.51; in data set [1] (pH 6.5, modulator: ogerin), -2.16. Also, the surface expression score in data set [2] is -3.31.
